Assay results published in a collection of fitness landscapes (doi:10.1016/j.celrep.2020.107928).
The full ranking holds about 81,000 sequences; the median of “one-hybrid fitness for binding parS DNA” is about -0.17, and the highest 2% start at about 0.51. Some of the results follow.

B1: Caulobacter ParB omega fusion; a variant is named by its letters at X, in order, B8GW30 (parent)
chain: MESVVVGEPGMSEGRRGLGRGLSALLGEVDAAPAQAPGEQLGGSREAPIEILQRNPDQPRRTFREEDLEDLSNSIREKGVLQPILVRPSPDTAGEYQIVAGERAWRAAQRAGLKTVPIMVRELDDLAVLEIGIIENVQRADLNVLEEALSYKVLMEKFERTQENIAQTIGKSXSHVANXMRLLXLPDEVQSYLVSGELTAXHARAIAAAADPVALAKQIIEGGLSVRETEALARKAPNLSAGKSKGGRPPRVKDTDTQALESDLSSVLGLDVSIDHRGSTGTLTITYATLEQLDDLCNRLTRGI

Variants of: B1
Experiment: one-hybrid fitness for binding parS DNA (scaled: cognate 1, non-cognate 0); higher = stronger binding
Settings: with parS DNA site
In short: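 The reporter was HIS3, with the binding site 19 bp from the promoter, in E. coli USO used for bacterial one-hybrid selection of Caulobacter ParB libraries with four specificity codons randomised. Growth was on M9 lacking histidine, with 0.1 mM IPTG and 5 mM 3-AT, for 48 hours at 37°C. Illumina sequencing covered plasmids before and after selection; three replicate libraries were pooled and variants with under 10 reads dropped. A fitness score is the log change in variant-to-wild-type read ratio, rescaled to the cognate and non-cognate references.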

Variant | one-hybrid fitness for binding parS DNA
AVYM | ≤ 0.2
TIVI | ≤ 0.2
QAPI | ≤ 0.2
SPPP | ≤ 0.2
CAVC | ≤ 0.2
TTDN | ≤ 0.2
QTRI | ≤ 0.2
AWIG | ≤ 0.2
QKMS | ≤ 0.2
VYHC | ≤ 0.2
WYNR | ≤ 0.2
SHCL | ≤ 0.2
TNNK | ≤ 0.2
HNLI | ≤ 0.2
ARET | ≤ 0.2
AEQT | ≤ 0.2
LTVA | ≤ 0.2
HCKG | ≤ 0.2
MPCR | ≤ 0.2
FAFT | ≤ 0.2
YFVN | ≤ 0.2
QCMN | ≤ 0.2
GYLT | ≤ 0.2
RGTD | ≤ 0.2

Variant | one-hybrid fitness for binding parS DNA
EDEC | ≤ 0.2
LITG | ≤ 0.2
LRGM | ≤ 0.2
SFQP | ≤ 0.2
MSNY | ≤ 0.2
QSYG | ≤ 0.2
SYII | ≤ 0.2
TAVD | ≤ 0.2
WQRR | ≤ 0.2
NARL | ≤ 0.2
KMYS | ≤ 0.2
EANW | ≤ 0.2
ITHY | ≤ 0.2
KTHE | ≤ 0.2
LAKQ | ≤ 0.2
RRPY | 0.315
YIAE | ≤ 0.2
AYTW | ≤ 0.2
FNLV | ≤ 0.2
HAHF | ≤ 0.2
HWKY | ≤ 0.2
LRDR | ≤ 0.2
RGTN | 0.25
GSHY | ≤ 0.2

Variant | one-hybrid fitness for binding parS DNA
LIAN | ≤ 0.2
RGWL | ≤ 0.2
LRNK | ≤ 0.2
RFVS | 0.892
IAAF | ≤ 0.2
SQYM | ≤ 0.2
RMRI | ≤ 0.2
AESY | ≤ 0.2
WDSC | ≤ 0.2
AMDT | ≤ 0.2
WCMR | ≤ 0.2
CSTC | ≤ 0.2
SFVC | ≤ 0.2
CILC | ≤ 0.2
KVKR | ≤ 0.2
WIYR | ≤ 0.2
VPMS | ≤ 0.2
LDSG | ≤ 0.2
HWDS | ≤ 0.2
SHGC | ≤ 0.2
WLTN | ≤ 0.2
DVDM | ≤ 0.2
YLNV | ≤ 0.2
RRSW | ≤ 0.2

Variant | one-hybrid fitness for binding parS DNA
YPRC | ≤ 0.2
RRDV | ≤ 0.2
DPMT | ≤ 0.2
HFAY | ≤ 0.2
YGMG | ≤ 0.2
DESY | ≤ 0.2
VCHG | ≤ 0.2
GNLR | ≤ 0.2
HIVC | ≤ 0.2
QQLK | ≤ 0.2
NIAV | ≤ 0.2
GGFC | ≤ 0.2
LRVY | ≤ 0.2
DPDY | ≤ 0.2
QIRE | ≤ 0.2
PQFV | ≤ 0.2
RGVG | 0.502
DRSY | ≤ 0.2
DPNG | ≤ 0.2
NDLT | ≤ 0.2
WSSW | ≤ 0.2
PRKC | ≤ 0.2
HIIL | ≤ 0.2
RQVI | ≤ 0.2

Variant | one-hybrid fitness for binding parS DNA
PQQQ | ≤ 0.2
DHDT | ≤ 0.2
MLQL | ≤ 0.2
GTTV | ≤ 0.2
RWQR | ≤ 0.2
TIML | ≤ 0.2
SQND | ≤ 0.2
LRNH | ≤ 0.2
PSTI | ≤ 0.2
HDKT | ≤ 0.2
HKSG | ≤ 0.2
RAEL | ≤ 0.2
NRQH | ≤ 0.2
DGQC | ≤ 0.2
TDPF | ≤ 0.2
MCKG | ≤ 0.2
VFTG | ≤ 0.2
PYSD | ≤ 0.2
WAKC | ≤ 0.2
LNLW | ≤ 0.2
PGSG | ≤ 0.2
AQHN | ≤ 0.2
QMDK | ≤ 0.2
KSVA | ≤ 0.2

Variant | one-hybrid fitness for binding parS DNA
SWSM | ≤ 0.2
RKQE | ≤ 0.2
QPKP | ≤ 0.2
EQVS | ≤ 0.2
SGAR | ≤ 0.2
SKAS | ≤ 0.2
GCSC | ≤ 0.2
ECQG | ≤ 0.2
NWRS | ≤ 0.2
LNCP | ≤ 0.2
RGPG | 0.298
SAYW | ≤ 0.2
TSVA | ≤ 0.2
DHAS | ≤ 0.2
ANYR | ≤ 0.2
VPYL | ≤ 0.2
YRQC | ≤ 0.2
HVTE | ≤ 0.2
LAVT | ≤ 0.2
VVAA | ≤ 0.2
QHNV | ≤ 0.2
DRWT | ≤ 0.2
MHRC | ≤ 0.2
IPPT | ≤ 0.2

Variant | one-hybrid fitness for binding parS DNA
RHIH | ≤ 0.2
QIPI | ≤ 0.2
DCKT | ≤ 0.2
CATG | ≤ 0.2
PVHT | ≤ 0.2
RLDS | 1.01
RMRT | 0.812
FSTL | ≤ 0.2
PSMY | ≤ 0.2
LDFN | ≤ 0.2
TCAA | ≤ 0.2
FTIV | ≤ 0.2
SHAE | ≤ 0.2
GCIR | ≤ 0.2
TANI | ≤ 0.2
QSRW | ≤ 0.2
CPWP | ≤ 0.2
KLAG | ≤ 0.2
VLEM | ≤ 0.2
ATYA | ≤ 0.2
TCLF | ≤ 0.2
HILC | ≤ 0.2
NTPP | ≤ 0.2
EVRT | ≤ 0.2

Variant | one-hybrid fitness for binding parS DNA
GCVC | ≤ 0.2
LYFR | ≤ 0.2
QNQW | ≤ 0.2
YIPV | ≤ 0.2
MGDR | ≤ 0.2
SLLP | ≤ 0.2
YHGV | ≤ 0.2
DVFR | ≤ 0.2
HRTK | ≤ 0.2
PVAV | ≤ 0.2
EVRG | ≤ 0.2
PTSY | ≤ 0.2
QQRP | ≤ 0.2
LDRC | ≤ 0.2
RYVY | 0.357
NASV | ≤ 0.2
YKPE | ≤ 0.2
HERV | ≤ 0.2
MFNV | ≤ 0.2
NDIF | ≤ 0.2
QCPS | ≤ 0.2
VTNG | ≤ 0.2
SDRL | ≤ 0.2
GNRS | ≤ 0.2

Variant | one-hybrid fitness for binding parS DNA
IRFS | ≤ 0.2
CLTD | ≤ 0.2
DGWG | ≤ 0.2
LFFR | ≤ 0.2
SCYR | ≤ 0.2
ETLV | ≤ 0.2
GATK | ≤ 0.2
PSIV | ≤ 0.2
YSRT | ≤ 0.2
YAAM | ≤ 0.2
ENKT | ≤ 0.2
WYYT | ≤ 0.2
VNSD | ≤ 0.2
QHGC | ≤ 0.2
IVTK | ≤ 0.2
TFWS | ≤ 0.2
QAAF | ≤ 0.2
VPPL | ≤ 0.2
QQVT | ≤ 0.2
RMAE | ≤ 0.2
SCRM | ≤ 0.2
NVCR | ≤ 0.2
AILA | ≤ 0.2
QVTG | ≤ 0.2

Variant | one-hybrid fitness for binding parS DNA
STAI | ≤ 0.2
TRTY | ≤ 0.2
AQHY | ≤ 0.2
YGQV | ≤ 0.2
HIQS | ≤ 0.2
HNER | ≤ 0.2
GMMS | ≤ 0.2
TSLV | ≤ 0.2
CLCA | ≤ 0.2
ADGL | ≤ 0.2
QTSG | ≤ 0.2
EQCE | ≤ 0.2
QVHT | ≤ 0.2
RNRM | 0.345
TDQG | ≤ 0.2
FMIS | ≤ 0.2
QRIC | ≤ 0.2
NILN | ≤ 0.2
SPQI | ≤ 0.2
EPET | ≤ 0.2
TNGS | ≤ 0.2
AHYS | ≤ 0.2
PAFW | ≤ 0.2
ACLG | ≤ 0.2

Variant | one-hybrid fitness for binding parS DNA
CMNF | ≤ 0.2
MVRL | ≤ 0.2
PLIC | ≤ 0.2
ATFW | ≤ 0.2
NARA | ≤ 0.2
ARVN | ≤ 0.2
RCSS | 0.978
HMNI | ≤ 0.2
QEHI | ≤ 0.2
DREK | ≤ 0.2
FTPM | ≤ 0.2
PCWL | ≤ 0.2
YHLG | ≤ 0.2
ALKT | ≤ 0.2
HDHC | ≤ 0.2
DNFR | ≤ 0.2
SFAW | ≤ 0.2
PDRS | ≤ 0.2
SMGL | ≤ 0.2
RWVD | ≤ 0.2
PITG | ≤ 0.2
WCRC | ≤ 0.2
DNAR | ≤ 0.2
PRSL | ≤ 0.2

Variant | one-hybrid fitness for binding parS DNA
GGKT | ≤ 0.2
WRRM | ≤ 0.2
LHDI | ≤ 0.2
QFHP | ≤ 0.2
WTLG | ≤ 0.2
MLYC | ≤ 0.2
NAMV | ≤ 0.2
LWCV | ≤ 0.2
KPES | ≤ 0.2
PSHM | ≤ 0.2
PQER | ≤ 0.2
HLWL | ≤ 0.2
SSHV | ≤ 0.2
MGSL | ≤ 0.2
LNYS | ≤ 0.2
GQPY | ≤ 0.2
SITV | ≤ 0.2
YWST | ≤ 0.2
EMVR | ≤ 0.2
LLML | ≤ 0.2
HGTR | ≤ 0.2
WVPF | ≤ 0.2
NTTA | ≤ 0.2
GLDT | ≤ 0.2

Variant | one-hybrid fitness for binding parS DNA
NQHS | ≤ 0.2
HMLS | ≤ 0.2
FLNV | ≤ 0.2
HSPC | ≤ 0.2
HNAA | ≤ 0.2
WSDV | ≤ 0.2
QRCH | ≤ 0.2
RIAT | 0.885
PTML | ≤ 0.2
SKRF | ≤ 0.2
PVHS | ≤ 0.2
YFRR | ≤ 0.2
PPWG | ≤ 0.2
DIYD | ≤ 0.2
NNPD | ≤ 0.2
APRY | ≤ 0.2
KRGW | ≤ 0.2
VVVY | ≤ 0.2
